Experimental data published in PMC12597282, “Deciphering mutational effects on inducible NO synthase conformational dynamics via quantitative cross-linking mass spectrometry and AlphaFold2 subsampling” (The Journal of Biological Chemistry, 2025).

What was measured:
calmodulin = target: T1, calmodulin (UniProt P0DP23); assay: cross-linking; DSBU 250 uM with 5 uM iNOS oxyFMN (co-purified with CaM), 20 mM HEPES, 100 mM NaCl, 1 mM CaCl2, pH 7.5, 30 min, room temperature; SDS-PAGE, dimeric band digested in gel; LC-MS/MS on timsTOF (DDA-PASEF, then PRM-PASEF for quantitation), lysine-lysine cross-links only; conditions: both partners purified
T1 construct: calmodulin; also called CaM; source: E. coli, coexpressed with iNOS oxyFMN, purified as iNOS-CaM complex

[1] = target: the molecule itself; assay: as above

B1: E546N mutant human inducible NOS oxygenase/FMN (oxyFMN) construct (domain or fragment)
chain: not shown
notes: human inducible nitric oxide synthase (iNOS), oxyFMN construct, […] in full-length iNOS, with E546N on the FMN domain surface; Dimeric band after cross-linking was analysed; also called E546N human iNOS oxyFMN
- binding result (calmodulin): binds
- log2 fold-change (E546N/wt) of the abundance of cross-link 105–689 heme–FMN (inter) [1]: -1.86 log2(E546N/wt)
- log2 fold-change (E546N/wt) of the abundance of cross-link 155–607 heme–FMN (inter) [1]: -2.08 log2(E546N/wt)
- log2 fold-change (E546N/wt) of the abundance of cross-link 158–607 heme–FMN (inter) [1]: -1.16 log2(E546N/wt)
